In all, about 220,000 compounds went through this assay and about 5,700 (2.6%) were called active. The inconclusive results got no clear call from the source; some entries with a clear call stand among them for comparison. The call rests on the fitted dose curve; in most records, active means well fitted inhibition curve with a large enough effect; inconclusive means small, poorly fitted or top-dose-only effect; inactive means no such curve, though single readings can be large or run the other way. Where the call is inconclusive, the potency comes from a doubtful curve fit.
Biological target: Lysine-specific demethylase 5B (Homo sapiens) (UniProt Q9UGL1)
Assay: Primary screen for KDM5B Histone Demethylases FDH-coupled qHTS; further: nearly all actives have a fitted effect of over 70% in size; on activity change, negative = inhibition: 0% is about no effect
Settings: FDH-coupled NADH fluorescence (FDH is formaldehyde dehydrogenase); activity change, negative = inhibition: at 57.7 µM (top of the series) unless noted
Outline: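 KDM5BΔAP (200 nM final) in 50 mM HEPES pH 7.5, 0.01% Tween-20 was preincubated 10 min at RT with compound over a concentration range. Substrate mix (H3K4me3 12.5 µM, α-KG 25 µM, Fe²⁺, ascorbate, NAD⁺, FDH) was added, and NADH fluorescence change over 30 min gave dose-response curves.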
Potency means the concentration at half of the fitted maximal effect; tags describe the fitted curve by direction and shape.

UniProt Q9UGL1, sequence (Q9UGL1 whole entry, looked up): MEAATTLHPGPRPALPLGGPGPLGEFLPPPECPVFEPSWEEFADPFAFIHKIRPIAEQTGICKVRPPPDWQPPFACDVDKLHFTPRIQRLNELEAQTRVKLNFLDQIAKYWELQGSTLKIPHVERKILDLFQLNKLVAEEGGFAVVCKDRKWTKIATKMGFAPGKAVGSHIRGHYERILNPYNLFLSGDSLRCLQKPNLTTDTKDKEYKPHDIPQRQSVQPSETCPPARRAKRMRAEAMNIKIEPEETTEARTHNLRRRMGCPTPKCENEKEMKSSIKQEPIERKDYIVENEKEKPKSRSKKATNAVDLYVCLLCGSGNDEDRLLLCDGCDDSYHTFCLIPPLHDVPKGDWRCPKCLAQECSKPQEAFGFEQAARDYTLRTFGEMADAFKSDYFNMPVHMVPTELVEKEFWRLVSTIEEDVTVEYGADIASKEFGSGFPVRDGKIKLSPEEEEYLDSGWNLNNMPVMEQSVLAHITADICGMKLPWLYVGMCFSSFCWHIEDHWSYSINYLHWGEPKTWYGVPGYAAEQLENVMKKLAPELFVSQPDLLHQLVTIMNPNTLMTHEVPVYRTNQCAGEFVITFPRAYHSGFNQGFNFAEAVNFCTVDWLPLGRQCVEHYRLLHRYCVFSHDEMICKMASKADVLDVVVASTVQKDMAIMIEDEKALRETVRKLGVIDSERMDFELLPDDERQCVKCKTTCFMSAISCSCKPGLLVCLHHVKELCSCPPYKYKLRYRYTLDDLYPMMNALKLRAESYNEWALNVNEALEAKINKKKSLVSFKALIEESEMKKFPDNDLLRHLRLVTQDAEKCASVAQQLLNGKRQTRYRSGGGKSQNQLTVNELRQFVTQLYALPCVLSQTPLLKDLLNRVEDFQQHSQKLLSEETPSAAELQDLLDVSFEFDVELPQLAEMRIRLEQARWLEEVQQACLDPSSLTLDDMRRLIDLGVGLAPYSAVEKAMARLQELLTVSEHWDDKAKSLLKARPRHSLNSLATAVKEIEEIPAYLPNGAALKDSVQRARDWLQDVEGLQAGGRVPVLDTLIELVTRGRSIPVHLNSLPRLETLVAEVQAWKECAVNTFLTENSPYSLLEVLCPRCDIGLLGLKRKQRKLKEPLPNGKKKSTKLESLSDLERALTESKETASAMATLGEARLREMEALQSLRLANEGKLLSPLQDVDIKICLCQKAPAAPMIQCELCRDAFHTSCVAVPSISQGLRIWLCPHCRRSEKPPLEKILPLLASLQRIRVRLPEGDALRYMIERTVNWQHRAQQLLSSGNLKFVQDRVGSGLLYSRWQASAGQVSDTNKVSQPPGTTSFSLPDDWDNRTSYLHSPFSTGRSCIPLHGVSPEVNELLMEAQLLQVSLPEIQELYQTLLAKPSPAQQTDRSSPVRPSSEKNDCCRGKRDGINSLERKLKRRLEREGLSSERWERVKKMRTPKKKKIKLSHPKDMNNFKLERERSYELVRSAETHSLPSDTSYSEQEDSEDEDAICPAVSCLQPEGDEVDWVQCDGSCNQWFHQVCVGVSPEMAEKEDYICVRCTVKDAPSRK

| SMILES | Potency | activity change, negative = inhibition |
| --- | --- | --- |
| O=C1CC(c2cn[nH]c2C(=O)O)c2c(n[nH]c2-c2cccs2)N1 (centres undefined) | inconclusive: 12.6 µM [inhibitor, partial curve] |  |
| O=[N+]([O-])c1ccc2nc(-c3ccccn3)[nH]c2c1 | inconclusive: 22.4 µM [inhibitor, partial curve, poor fit] |  |
| CCc1ccccc1S(=O)(=O)Nc1cccn2nc(C(C)C)nc12 | inconclusive: 8.91 µM [inhibitor, partial curve] |  |
| CCc1ccc(-c2nc(C(=O)N3CCN(C(C#N)c4ccc(F)cc4)CC3)cs2)cc1 (centres undefined) | inactive |  |
| CCC(C(=O)OCC(=O)c1c(C)[nH]c2ccccc12)c1ccccc1 (centres undefined) | inactive |  |
| Cc1ccc(S(=O)(=O)NNC(=S)Nc2cccc(F)c2)cc1 | inconclusive: 15.8 µM [inhibitor, partial curve, poor fit] |  |
| Cc1ccc(-c2cn3c(n2)sc2cc(C(=O)N4CCCCC4)ccc23)cc1 | inconclusive: 22.4 µM [inhibitor, partial curve, poor fit] |  |
| Fc1ccccc1-c1noc(-c2ncn3c2COC(c2ccccc2Cl)C3)n1 (centres undefined) | inactive |  |
| CCN(CC)S(=O)(=O)c1cc(-c2n[nH]c(=O)c3ccccc23)ccc1C | inconclusive: 25.1 µM [inhibitor, single point] |  |
| Cc1ccc(NC(=O)Cn2c(CCC(=O)O)ccc2-c2cccs2)cc1 | inconclusive: 22.4 µM [inhibitor, single point] |  |
| COc1ccc(NC(=O)Cc2c(C)c3c(OC)cc(C)cc3oc2=O)c(OC)c1 | inconclusive: 25.1 µM [inhibitor, partial curve, poor fit] |  |
| Cc1ccc(-n2ncc(C(=O)Nc3ccc(C)c(F)c3)c2C2CCN(C(=O)OC(C)(C)C)CC2)cc1C | inactive |  |
| Cc1cc(C)cc(NC(=S)N[C@H]2CO[C@H]3[C@@H]2OC[C@H]3OC(=O)NC2CCCCC2)c1 | inactive |  |
| COc1ccc(/C=C/C(=O)c2ccc(C)s2)cc1 | inconclusive: 20 µM [inhibitor, partial curve, poor fit] |  |
| N[C@H]1CCN2C(=O)c3cc(-c4ccc5c(c4)OCO5)ccc3NC(=O)[C@H]12 | inconclusive: 28.2 µM [inhibitor, partial curve] |  |
| Cc1ccc(CNC(=O)CCCCn2c(=O)c3ccccc3n(Cc3ccc(Cl)cc3)c2=O)cc1 | inconclusive: 7.94 µM [inhibitor, partial curve, poor fit] |  |
| O=C1NCc2ccccc2CC12CCCN2Cc1ccnc2ccccc12 (centres undefined) | active: 50.1 µM |  |
| Cc1nc2sc(C(=O)NCc3ccc(Cl)cc3)c(NC(=O)c3ccccc3)c2c(C)c1C | inconclusive: 1 µM [inhibitor, partial curve, poor fit] |  |
| CC1CCc2nc(N)c(C#N)c(-c3ccc(F)cc3)c2C1 (centres undefined) | inconclusive: 2.82 µM [inhibitor, full curve, poor fit] |  |
| Cc1cccc(C(=O)NCCc2c[nH]c3ccccc23)c1C | inactive |  |
| COc1ncccc1Nc1cnc2ccc(N(C)C)nn12 | inconclusive: 35.5 µM [inhibitor, single point] |  |
| c1cncc(Nc2cc3c(cn2)CN(CC2CCCCC2)CCN3)c1 | inconclusive: 39.8 µM [inhibitor, partial curve, poor fit] |  |

| SMILES | Potency | activity change, negative = inhibition |
| --- | --- | --- |
| COc1ccc(OC)c(NC(=O)c2csnn2)c1 | inconclusive: 31.6 µM [inhibitor, single point] |  |
| COc1ccc(CCNC(=O)c2noc(-c3ccc[nH]c3=O)n2)cc1OC | active: 31.6 µM |  |
| CC12CCC(C(=O)N(CC(O)CN3CCN(Cc4ccccc4)CC3)C1=O)C2(C)C (centres undefined) | inconclusive: 31.6 µM [inhibitor, partial curve, poor fit] |  |
| COCCCNC(=O)c1cc(-c2cccnc2)nc2ccccc12 | inactive |  |
| CCN1c2cc(C(=O)NCc3cccc(F)c3)ccc2C(=O)N2CCCCC21 (centres undefined) | inconclusive: 25.1 µM [inhibitor, partial curve, poor fit] |  |
| COc1ccc2oc(=O)c(C(=O)Nc3ccccc3Cl)cc2c1 | inactive |  |
| COc1ccc(-c2cc3nc(C4CCN(C(=O)OC(C)(C)C)CC4)c(C(=O)Nc4cc(Cl)cc(Cl)c4)cn3n2)cc1 |  | inconclusive: -32.6% [inhibitor] |
| COc1ccc(CNC(=O)c2ccc3c(c2)N(Cc2ccccc2)C(=O)c2ccccc2S3(=O)=O)cc1 | inconclusive: 17.8 µM [inhibitor, single point] |  |
| CN(C)c1ccc(-c2ccc3ccccc3n2)cc1 | inconclusive: 22.4 µM [inhibitor, partial curve, poor fit] |  |
| CC1CCN(c2ccc(NC(=O)c3nn(-c4ccccc4)c(=O)c4ccccc34)cc2)CC1 | inactive |  |
| CCOc1cc(CNc2ccc(O)cc2)cc(Br)c1OCc1ccccc1 | inconclusive: 1.58 µM [inhibitor, partial curve, poor fit] |  |
| CCC1CCCCN1C(=O)CCn1cnc2c1c(=O)n(C)c(=O)n2C (centres undefined) | inactive |  |
| Cc1cc(C)n(-c2ccc(C(=O)OCC(=O)NC3CCS(=O)(=O)C3)cc2)n1 (centres undefined) | inactive |  |
| CCCN(C(=O)c1cc2c(Cl)nc3ccccc3c2s1)c1cccc(C)c1 | inconclusive: 15.8 µM [inhibitor, partial curve, poor fit] |  |
| COC(=O)N1CCc2nc(C(C)C)nc(-c3ccc(O)cc3)c2C1 | inactive |  |
| CC(=O)c1cn(CC(=O)NCc2ccc(F)cc2)c2ccccc12 | inactive |  |
| COc1ccccc1CN1CC[C@@](C)(O)[C@H](N2CCCC2)C1 | inconclusive: 25.1 µM [inhibitor, partial curve] |  |
| COc1cc(/C=C/CN2CC(=O)N(C(C)C)CC(OCc3noc(C)n3)C2)ccc1O (centres undefined) | inconclusive: 25.1 µM [inhibitor, partial curve, poor fit] |  |
| COc1ccc(N2CC(c3noc(-c4ccc(C)cc4C)n3)CC2=O)cc1 (centres undefined) | inconclusive: 20 µM [inhibitor, single point] |  |
| CN1CCN(c2nc3c(s2)CN(C(=O)c2ccccn2)CC3)CC1 | inconclusive: 17.8 µM [inhibitor, partial curve, poor fit] |  |
| CC(C)NC(=O)NC[C@H]1O[C@@H]2C[C@@H](CC(=O)NCc3nccn3C)O[C@@H]2[C@@H]1O | inconclusive: 15.8 µM [inhibitor, partial curve, poor fit] |  |
| O=C(c1ccccc1F)N1CCN(c2nc3ncccc3o2)CC1 | inconclusive: 28.2 µM [inhibitor, single point] |  |

| SMILES | Potency | activity change, negative = inhibition |
| --- | --- | --- |
| N#Cc1c(N)n[nH]c1CCCNc1nc(-c2cccnc2)nc2ccccc12 | inactive |  |
| COc1ccccc1CNC(=O)C1CCN(Cc2nc(-c3ccc(OC)c(OC)c3)oc2C)CC1 | inconclusive: 2.24 µM [inhibitor, partial curve, poor fit] |  |
| Cc1ccccc1CNC(=O)c1ccc(-n2c(C)cc3c2CCCC3)cc1 | inconclusive: 17.8 µM [inhibitor, partial curve, poor fit] |  |
| CCCCn1c(=O)[nH]c(=O)c2c1nc(-c1ccccn1)n2CCOC | inconclusive: 2 µM [inhibitor, full curve, poor fit] |  |
| Cc1cccc(-c2nc3c(C#N)c[nH]n3c2NC2CCCCC2)c1 | inconclusive: 25.1 µM [inhibitor, partial curve, poor fit] |  |
| CN(C)c1ccc(C(=O)N2CCN3C(=O)c4cc(-c5ccc6c(c5)OCO6)ccc4NC(=O)[C@H]3C2)cc1 | active: 35.5 µM |  |
| O=C(NCCc1ccc(Cl)cc1)c1nc(-c2ccccc2)c2ccccn12 | active: 28.2 µM |  |
| COc1cccc(OCc2nc3c(n2Cc2ccccc2)C(=O)N(CCOc2ccccc2)CCN3)c1 | inconclusive: 39.8 µM [inhibitor, partial curve, poor fit] |  |
| CCN1CCCCC12Cc1ccccc1CN(C(C)=O)C2 (centres undefined) | inactive |  |
| CCCCCc1ccc(OCCC[n+]2ccccc2)c(CCCCC)c1 | inconclusive: 39.8 µM [inhibitor, single point] |  |
| CN(C)c1ccc(C(CNS(=O)(=O)c2ccc(Cl)cc2)N2CCCC2)cc1 (centres undefined) | inconclusive: 3.55 µM [inhibitor, partial curve, poor fit] |  |
| CC(C)(C)c1ccc(-c2cc(C[C@H]3CNCC[C@H]3CC(=O)N3CCCCC3)no2)cc1 | inconclusive: 35.5 µM [inhibitor, single point] |  |
| NCc1ccccc1-c1nc2c([nH]1)CCNC2C(=O)O (centres undefined) | inconclusive: 11.2 µM [inhibitor, single point] |  |
| CCn1c(C)c(CCC(=O)NCc2cccc(OC)c2)c(=O)n2nc(-c3ccccc3OC)cc12 | inconclusive: 22.4 µM [inhibitor, partial curve, poor fit] |  |
| Cc1ccc2nc(CO[C@H]3CN(Cc4ccc(Cl)cc4)C[C@H]3F)[nH]c2c1 | inconclusive: 31.6 µM [inhibitor, partial curve, poor fit] |  |
| Cc1nn(CC(=O)N[C@H](C)c2ccccc2)c(=O)n1-c1ccc2c(c1)OCO2 | inactive |  |
| CCC(Oc1ccccc1F)C(=O)Nc1c(C(=O)c2ccccc2)oc2ccccc12 (centres undefined) | inconclusive: 31.6 µM [inhibitor, partial curve, poor fit] |  |
| O=C(Nc1ccc(Cl)cc1)C1CCN(c2nc3ccccc3n3cccc23)CC1 | inconclusive: 15.8 µM [inhibitor, partial curve, poor fit] |  |
| COc1ccc2cc1Nc1ccc(cc1)C[C@H](NC(=O)Cc1cccc(Cl)c1)C(=O)N(C)[C@H](C(=O)NCCC(C)C)C2 | inconclusive: 12.6 µM [inhibitor, single point] |  |
| COc1ccc(Br)cc1CNC(=O)CCCn1c(=O)c2cccn2c2ccccc21 | inconclusive: 0.891 µM [inhibitor, partial curve, poor fit] |  |

From PubChem BioAssay AID1347165 (National Center for Advancing Translational Sciences (NCATS), 2019)
